Drawing on PubChem BioAssay AID1745853 (National Center for Advancing Translational Sciences (NCATS), 2022), this text covers activity change, negative = inhibition for 36 molecules.

Holding throughout (assay): Primary Screen for Target Class Profiling of Small Molecule Inhibitors of Methyltransferases
Test [1] addresses Glycine N-methyltransferase (Homo sapiens) (UniProt Q14749). The settings on record: purified enzyme, MTase-Glo SAH luminescence; measured here: GNMT inhibition; at 40 µM; stronger effect = lower value. In outline: (§1)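 Each enzyme was reacted with SAM and its substrate, with compounds tested once at 40 uM; SAH formed was read by MTase-Glo luminescence.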
Test [2] deals with Guanidinoacetate N-methyltransferase (Homo sapiens) (UniProt Q14353). The settings on record: purified enzyme, MTase-Glo SAH luminescence; measured here: GAMT inhibition; at 40 µM; stronger effect = lower value. Summed up: as §1
Test [3] addresses Histamine N-methyltransferase (Homo sapiens) (UniProt P50135). The settings on record: purified enzyme, MTase-Glo SAH luminescence; measured here: HNMT inhibition; at 40 µM; stronger effect = lower value. Summed up: as §1
Test [4] addresses Nicotinamide N-methyltransferase (Homo sapiens) (UniProt P40261). The note with it: purified enzyme, MTase-Glo SAH luminescence; measured here: NNMT inhibition; at 40 µM; stronger effect = lower value. In outline:
as §1

For test [5], the target named is Phenylethanolamine N-methyltransferase (Homo sapiens) (UniProt P11086). The settings on record: purified enzyme, MTase-Glo SAH luminescence; measured here: PNMT inhibition; at 40 µM; stronger effect = lower value. In outline:
as §1

Some of the results follow. Further columns of the screen follow, without active or inactive calls.
On the % scale 0 is the no-effect control and ±100 the full control effect.

Consider `CCOC(=O)c1cc2n(n1)CC(C)(C(=O)NCc1ccc(F)cc1)N(Cc1ccc(F)cc1)C2=O` (stereo not given), for which the activity change, negative = inhibition in test [1] is -3.07%; in test [2], -0.317%; in test [3], 1.64%; in test [4] it was -5.45%; in test [5], -2.76%.

`C[C@@H]1O[C@@H](O[C@H]2CC[C@@]3(C)C(CC[C@]4(C)C3CC=C3[C@@H]5CC(C)(C)CC[C@]5(C(=O)O[C@@H]5O[C@H](CO)[C@@H](O)[C@H](O)[C@H]5O)CC[C@]34C)[C@]2(C)CO)[C@H](O)[C@H](O[C@@H]2O[C@H](CO)[C@@H](O)[C@H](O)[C@H]2O)[C@H]1O` (stereo not given in full): the activity change, negative = inhibition in test [1] is -0.166%; in test [2], 6.15%; in test [3] it was 5.46%; in test [4] it was -6.29%; in test [5] it was 7.35%.

Turning to `O=C(CN1CCOCC1)NC1CCc2nnc(C3CC3)n2CC1` (stereo not given), the activity change, negative = inhibition in test [1] was -0.968%; in test [2], -1.02%; in test [3] it was 0.312%; in test [4], -3.84%; in test [5], -1.96%.

With `O=C(COc1cccc(-c2nnc3n2CCCC3)c1)Nc1ccc(Cl)cc1F`, the activity change, negative = inhibition in test [1] was -6.96%; in test [2], -5.02%; in test [3], -6.4%; in test [4], -13.3%; in test [5] it was -6.72%.

Consider `O=C(CO)[C@@H](O)[C@H](O[C@@H]1O[C@H](CO)[C@H](O)[C@H](O)[C@H]1O)[C@H](O)CO`, for which the activity change, negative = inhibition in test [1] is -0.619%; in test [2], -9.36%; in test [3], 6.85%; in test [4], -15.9%; in test [5] it was 0.372%.

Turning to `CCCC1(C(=O)O)CCCN(S(=O)(=O)c2ccsc2C(=O)O)C1` (stereo not given), the activity change, negative = inhibition in test [1] was -2.62%; in test [2] it was 0.469%; in test [3], -1.36%; in test [4] it was 0.096%; in test [5], 2.89%.

Take `COc1cccc(CNc2nc3c(S(=O)(=O)c4ccc(C)c(C)c4)nnn3c3ccccc23)c1`: the activity change, negative = inhibition in test [1] is -2.15%; in test [2] it was 0%; in test [3], 5.85%; in test [4] it was 5.99%; in test [5] it was -1.54%.

Take `CN1C(=O)c2cc3ccccc3n2CC1(C)C(=O)NCC(=O)NCCc1ccccc1` (stereo not given): the activity change, negative = inhibition in test [1] was -1.51%; in test [2], 0%; in test [3], 4.56%; in test [4], -0.653%; in test [5] it was 2.23%.

In the case of `COc1cc2nc(-c3cc(F)ccc3O)nc(N[C@@H]3CNC[C@H]3C(C)(C)O)c2cc1OC`, the activity change, negative = inhibition in test [1] is 1.88%; in test [2], 15.3%; in test [3] it was 2.31%; in test [4], -16.5%; in test [5] it was 2.05%.

For `COc1ncccc1-c1csc(CN2CCCC(C)(NC(C)=O)C2)c1` (stereo not given), the activity change, negative = inhibition in test [1] is -5.25%; in test [2] it was -7.79%; in test [3] it was -7.3%; in test [4], -14.8%; in test [5], -6.49%.

Consider `CN1CCCC2(CCN(C(=O)CCc3ccc(Cl)cc3)C2)C1=O` (stereo not given), for which the activity change, negative = inhibition was -4.33% in test [1]; -3.17% in test [2]; -0.9% in test [3]; -6.62% in test [4]; -3.73% in test [5].

Take `O=C(COc1ccc(Cl)cc1)N1CCc2nn(CC3CC3)c(=O)n2CC1`: the activity change, negative = inhibition is 0.656% in test [1]; 0.973% in test [2]; -0.265% in test [3]; 2.95% in test [4]; 13.3% in test [5].

As to `CCC(C)NC(=O)c1ccc2c(=O)n(CC(C)C)c3nn(Cc4cc(C)ccc4C)c(=O)n3c2c1` (stereo not given), the activity change, negative = inhibition in test [1] is -1.26%; in test [2], -0.481%; in test [3], 1.48%; in test [4], -4.76%; in test [5], -3.77%.

As for `O=C(c1ccc(Cl)cc1)N1CCN(c2ccc([N+](=O)[O-])c3ncccc23)CC1`, the activity change, negative = inhibition in test [1] is -19.8%; in test [2], 5.2%; in test [3], -6.01%; in test [4] it was -10.4%; in test [5] it was 4.91%.

As for `N#Cc1ccc(C(=O)NCc2nn(Cc3ccccc3)c3ccccc23)c(F)c1`, the activity change, negative = inhibition in test [1] was 8.93%; in test [2], 0.923%; in test [3], 8.64%; in test [4], -5.61%; in test [5], 7.13%.

With `Cc1nn(-c2ccccc2)c2c1C(C)N(C1CCN([S+](=O)([O-])c3ccccc3)CC1)C2=O` (stereo not given), the activity change, negative = inhibition in test [1] was -1.69%; in test [2], -0.418%; in test [3] it was -1.58%; in test [4], -0.448%; in test [5], 9.45%.

For `CC1(C(=O)NC2CCCCCC2)Cn2c(nc3ccccc32)C(=O)N1Cc1ccccc1F` (stereo not given), the activity change, negative = inhibition in test [1] is -4.53%; in test [2], 3.18%; in test [3], 1.12%; in test [4] it was -1.31%; in test [5], -4.37%.

Turning to `CCCn1c(=O)c2ccccc2n2c(=O)n(CC(=O)c3ccc(C)cc3C)nc12`, the activity change, negative = inhibition in test [1] is -0.982%; in test [2], 0%; in test [3] it was 6.1%; in test [4], -8.62%; in test [5], -0.54%.

Take `CSc1ccc(CCNC(=O)c2cc3n(n2)CCCN(Cc2ccc(Cl)cc2)C3=O)cc1`: the activity change, negative = inhibition in test [1] was -7.25%; in test [2], 1.38%; in test [3], -7.75%; in test [4], -10%; in test [5], -3.08%.

`CN(C)c1ccc(CNC(=O)c2cc3n(n2)CC(C)(C(=O)NCc2ccccc2)N(C)C3=O)cc1` (stereo not given): the activity change, negative = inhibition in test [1] stood at 7.66%; in test [2] it was 0%; in test [3], 8.28%; in test [4], 12.7%; in test [5], 5.45%.

Take `COc1ccc(CCNC(=O)CCc2nnc3n(Cc4ccc(F)cc4)c(=O)c4ccccc4n23)cc1OC`: the activity change, negative = inhibition is -15% in test [1]; 1.79% in test [2]; -1.11% in test [3]; -25.3% in test [4]; -2.42% in test [5].

On to `O=C(Cn1c(=O)oc2cc(S(=O)(=O)N3CCCC3)ccc21)Nc1ccc(C(F)(F)F)cc1`, for which the activity change, negative = inhibition was -5.26% in test [1]; 3.52% in test [2]; 2.31% in test [3]; 0.274% in test [4]; -23% in test [5].

Turning to `COc1cccc(CNc2ccc(S(=O)(=O)Nc3nc4ccccc4s3)cc2)c1O`, the activity change, negative = inhibition was -23.1% in test [1]; -7.91% in test [2]; 8.72% in test [3]; -49% in test [4]; -14% in test [5].

Turning to `O=C(C1CCCC1)N1CCC(n2cnnc2C2CC2)CC1`, the activity change, negative = inhibition in test [1] was -3.35%; in test [2] it was -8.7%; in test [3] it was -3.29%; in test [4], -5.44%; in test [5], 9.32%.

For the molecule `CCc1cc2c(cc3n2CC(C)(C(=O)NC2CCCCC2)N(Cc2cccc(Cl)c2)C3=O)s1` (stereo not given), the activity change, negative = inhibition is -2.86% in test [1]; 1.51% in test [2]; -7.77% in test [3]; -2.84% in test [4]; -7.39% in test [5].

Regarding `Cc1ccccc1N1C(=O)c2cc3sccc3n2CC1(C)C(=O)NC1CCCCC1` (stereo not given), the activity change, negative = inhibition in test [1] is 3.14%; in test [2] it was -2.62%; in test [3] it was 2.72%; in test [4], 12.3%; in test [5], 3.81%.

On to `CC1(C(=O)NC2CCCCCCC2)Cn2c(cc3sccc32)C(=O)N1CCN1CCOCC1` (stereo not given), for which the activity change, negative = inhibition is 4.37% in test [1]; 1.27% in test [2]; 8.58% in test [3]; -2.03% in test [4]; 3.51% in test [5].

Regarding `CC(=O)OCC(=O)O[C@@H]1[C@H]2[C@@H](OC(=O)c3ccccc3)[C@@H](C)C[C@]2(O)[C@H](OC(C)=O)C2(C)[C@H]3CC(C)(C)C(=O)[C@@H]3CC1(OC(C)=O)[C@@H]2OC(C)=O` (stereo not given in full), the activity change, negative = inhibition in test [1] is 1.37%; in test [2] it was 2.06%; in test [3], 7.46%; in test [4] it was -11.5%; in test [5], 4.5%.

As to `CCCNS(=O)(=O)c1ccc2[nH]c(=O)[nH]c2c1`, the activity change, negative = inhibition in test [1] is 2.14%; in test [2], 0.814%; in test [3] it was 1.38%; in test [4] it was -1.09%; in test [5], -5.46%.

In the case of `CCOC(=O)c1ccc(OCCN2C[C@H](O)[C@@H](O)[C@H](O)[C@H]2CO)cc1`, the activity change, negative = inhibition is 2.43% in test [1]; -2.84% in test [2]; 10.8% in test [3]; -7.38% in test [4]; 4.23% in test [5].

As to `O=C1NC(=O)C(c2cnc3ccccn23)=C1c1cn2c3c(cccc13)CN(C(=O)N1CCOCC1)CC2`, the activity change, negative = inhibition is -26.6% in test [1]; 8.95% in test [2]; -17.9% in test [3]; -17.9% in test [4]; -10.9% in test [5].

Take `Cc1cc(C)cc(NC(=O)CCc2nnc3n(CC(C)C)c(=O)c4ccccc4n23)c1`: the activity change, negative = inhibition in test [1] is 0.991%; in test [2], -0.329%; in test [3], 9.45%; in test [4] it was 7.27%; in test [5], -1.97%.

On to `COc1nccc(N2CCC(CC(=O)N3CCN(C(C)=O)CC3)CC2)n1`, for which the activity change, negative = inhibition is -3.12% in test [1]; -5.69% in test [2]; -5.84% in test [3]; -6.75% in test [4]; -4.78% in test [5].

With `O=C(O)CCC1CCCN(S(=O)(=O)c2ccc(F)cc2)C1` (stereo not given), the activity change, negative = inhibition in test [1] is -2.23%; in test [2] it was -7.75%; in test [3], -1.99%; in test [4], -3.54%; in test [5], -2.04%.

On to `CC(C)N1C[C@H](O)C[C@H]1c1nnc2n1CCN(C(=O)c1ccco1)CC2`, for which the activity change, negative = inhibition in test [1] was 0.194%; in test [2], -1.39%; in test [3], 0.557%; in test [4], 0.441%; in test [5], 4.05%.

Regarding `COc1ccc(CNC(=O)Nc2ncc([N+](=O)[O-])s2)cc1`, the activity change, negative = inhibition in test [1] was 0.462%; in test [2] it was 0.609%; in test [3], 6.07%; in test [4], -10.9%; in test [5], 2.54%.
